# Results reported in the supplement of paper PMC4604168 (melanoma cell lines).
# Some of the results follow. Most values come without repeats; read them as rough.
# Key:
# Assay in all cases: cell count relative to DMSO control; melanoma cells; higher = more viable cells
# Settings in all cases: library dose: standard library concentration; 72 h
# [1] = test system: 501Mel
# [2] = test system: A101D
# [3] = test system: A2058
# [4] = test system: A375
# 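Note: cells treated in 1,536-well plates, then fixed and DAPI-stained, with nuclei counted from automated high-throughput microscope images.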
SMILES,cell count [1] [%],cell count [2] [%],cell count [3] [%],cell count [4] [%]
"COc1cc2c(Oc3ccc4[nH]c(C)cc4c3F)ncnc2cc1OCCCN1CCCC1 [cediranib] + Oc1nc(-c2ccc(C(F)(F)F)cc2)nc2c1CSCC2 [XAV939] (first compound 2 µM, partner dose 10 µM)",85.1,101,77.4,137
"Cc1ccc(NC(=O)c2cccc(N(C)C)c2)cc1NC(=O)c1ccc(O)cc1 + Cn1cc(/C=C2\C(=O)Nc3cccnc32)c2ccccc21 [GW441756] (first compound 10 µM, partner dose 2 µM)",75.8,76.4,105,174
"CN(NC(=O)CC(=O)NN(C)C(=S)c1ccccc1)C(=S)c1ccccc1 + O=C(Nc1ccccc1)c1cc([N+](=O)[O-])ccc1Cl [GW9662] (first compound 0.03 µM, partner dose 10 µM)",2.12,51,10.5,98
"CCc1ccc(CCOc2ccc(CC3SC(=O)NC3=O)cc2)nc1 (stereo not given) [pioglitazone] + c1cc(-c2cnn3cc(-c4ccc(OCCN5CCCCC5)cc4)cnc23)ccn1 [Dorsomorphin] (first compound 10 µM, partner dose 2 µM)",57.3,72.4,78.3,84.6
"CCc1ccc(CCOc2ccc(CC3SC(=O)NC3=O)cc2)nc1 (stereo not given) [pioglitazone] + CCCCCCCCCCCC1=C(O)C(=O)C=C(O)C1=O [Embelin] (first compound 10 µM, partner dose 6 µM)",103,94,103,110
"Cc1ccc(NC(=O)c2cccc(N(C)C)c2)cc1NC(=O)c1ccc(O)cc1 + O=C(Nc1ccccc1)c1cc([N+](=O)[O-])ccc1Cl [GW9662] (first compound 10 µM, partner dose 10 µM)",69,64.8,88.7,115
"CCc1ccc(CCOc2ccc(CC3SC(=O)NC3=O)cc2)nc1 (stereo not given) [pioglitazone] + Cc1cc([N+](=O)[O-])ccc1NS(=O)(=O)c1cc(Cl)ccc1Cl [FH535] (first compound 10 µM, partner dose 5 µM)",83,69.9,86.4,80.1
"CCc1ccc(CCOc2ccc(CC3SC(=O)NC3=O)cc2)nc1 (stereo not given) [pioglitazone] + COC(=O)c1sccc1S(=O)(=O)Nc1ccc(Nc2ccccc2)cc1OC [GSK0660] (first compound 10 µM, partner dose 5 µM)",102,104,87.7,125
"CN(NC(=O)CC(=O)NN(C)C(=S)c1ccccc1)C(=S)c1ccccc1 + CCN(CC)CCCCNc1ncc2cc(-c3cc(OC)cc(OC)c3)c(NC(=O)NC(C)(C)C)nc2n1 [PD173074] (first compound 0.03 µM, partner dose 0.5 µM)",9.19,64.7,13.3,101
"CCCCCCCCc1ccc(CCC(N)(CO)CO)cc1 [fingolimod] + N#Cc1c(O)c2c(-c3ccc(-c4ccccc4O)cc3)csc2[nH]c1=O [A769662] (first compound 10 µM, partner dose 10 µM)",0.6,9.79,8.05,50.9
"CCCCCCCCc1ccc(CCC(N)(CO)CO)cc1 [fingolimod] + COc1ccc2c(c1)CCC1C2CCC2(C)C(NCCCCCCN3C(=O)C=CC3=O)CCC12 [U73122] (first compound 10 µM, partner dose 2 µM)",1.68,1.65,6.41,69.7
"CCc1ccc(CCOc2ccc(CC3SC(=O)NC3=O)cc2)nc1 (stereo not given) [pioglitazone] + O=C1NC(=O)/C(=C/c2ccc(-c3ccc(F)cc3O)o2)S1 [AS252424] (first compound 10 µM, partner dose 5 µM)",61.2,89.7,94.9,111
"CCCCCCCCc1ccc(CCC(N)(CO)CO)cc1 [fingolimod] + O=S(=O)(c1ccccc1)N(CC(F)(F)F)c1ccc(C(O)(C(F)(F)F)C(F)(F)F)cc1 [T0901317] (first compound 10 µM, partner dose 7 µM)",0.324,3.8,3.7,46.9
"CCCCCCCCc1ccc(CCC(N)(CO)CO)cc1 [fingolimod] + Oc1nc(-c2ccc(C(F)(F)F)cc2)nc2c1CSCC2 [XAV939] (first compound 10 µM, partner dose 10 µM)",5.05,43.8,72.5,119
"Cc1ccc(NC(=O)c2cccc(N(C)C)c2)cc1NC(=O)c1ccc(O)cc1 + O=C(O)C(=O)Nc1sc2c(c1C(=O)O)CCNC2 [TCS401] (first compound 10 µM, partner dose 8.33333 µM)",72.1,114,112,161
"CCCCCCCCc1ccc(CCC(N)(CO)CO)cc1 [fingolimod] + COc1cc2ncnc(Nc3ccc(Oc4ccccc4)cc3)c2cc1OC [SrcI1] (first compound 10 µM, partner dose 10 µM)",0.364,6.69,4.13,76.3
"NC(=O)c1ccc(N(C(N)=O)c2c(F)cccc2F)nc1-c1ccc(F)cc1F + COc1ccc2c(c1)CCC1C2CCC2(C)C(NCCCCCCN3C(=O)C=CC3=O)CCC12 [U73122] (first compound 2 µM, partner dose 2 µM)",89.3,67.6,58.6,68
"CC(C)(C)c1cnc(CSc2cnc(NC(=O)C3CCNCC3)s2)o1 + COC(=O)c1sccc1S(=O)(=O)Nc1ccc(Nc2ccccc2)cc1OC [GSK0660] (first compound 0.05 µM, partner dose 5 µM)",82.8,79.8,91.8,88.4
"COc1cc2c(Oc3ccc4[nH]c(C)cc4c3F)ncnc2cc1OCCCN1CCCC1 [cediranib] + COc1ccc(-c2ccc3c(N4CCOCC4)nc(N4C[C@@H](C)O[C@@H](C)C4)nc3n2)cc1CO [KU0063794] (first compound 2 µM, partner dose 0.1 µM)",84.7,92.3,96.2,122
"CCCCCCCCc1ccc(CCC(N)(CO)CO)cc1 [fingolimod] + CC(C)CCN1c2nc(Nc3cc(F)c(O)c(F)c3)ncc2N(C)C(=O)C1C [BID1870] (first compound 10 µM, partner dose 1 µM)",1.83,7.6,43.3,99.1
"Cc1ccc(NC(=O)c2cccc(N(C)C)c2)cc1NC(=O)c1ccc(O)cc1 + COc1ccc(-c2ccc3c(N4CCOCC4)nc(N4C[C@@H](C)O[C@@H](C)C4)nc3n2)cc1CO [KU0063794] (first compound 10 µM, partner dose 0.1 µM)",76.4,92.9,84.4,108
"CCCCCCCCc1ccc(CCC(N)(CO)CO)cc1 [fingolimod] + Cn1cc(/C=C2\C(=O)Nc3cccnc32)c2ccccc21 [GW441756] (first compound 10 µM, partner dose 2 µM)",0.287,5.4,5.82,20
"CCCCCCCCc1ccc(CCC(N)(CO)CO)cc1 [fingolimod] + O=C(Nc1ccccc1)c1cc([N+](=O)[O-])ccc1Cl [GW9662] (first compound 10 µM, partner dose 10 µM)",0.329,5.72,1.93,46.8
"CCc1ccc(CCOc2ccc(CC3SC(=O)NC3=O)cc2)nc1 (stereo not given) [pioglitazone] + O=C(Nc1ccccc1)c1cc([N+](=O)[O-])ccc1Cl [GW9662] (first compound 10 µM, partner dose 10 µM)",76,68.9,111,124
"COc1cc2c(Oc3ccc4[nH]c(C)cc4c3F)ncnc2cc1OCCCN1CCCC1 [cediranib] + COc1cc2ncnc(Nc3ccc(Oc4ccccc4)cc3)c2cc1OC [SrcI1] (first compound 2 µM, partner dose 10 µM)",66.5,51,101,167
"Cc1ccc(NC(=O)c2cccc(N(C)C)c2)cc1NC(=O)c1ccc(O)cc1 + O=c1cc(-c2cccc3c2Sc2ccccc2S3)oc(N2CCOCC2)c1 [KU55933] (first compound 10 µM, partner dose 5 µM)",83,78.7,82.9,117
"CC(C)(C)c1cnc(CSc2cnc(NC(=O)C3CCNCC3)s2)o1 + CCc1ccc(CCOc2ccc(CC3SC(=O)NC3=O)cc2)nc1 [pioglitazone] (first compound 0.05 µM, partner dose 10 µM)",112,80.1,87.7,94.3
"COc1cc2c(Oc3ccc4[nH]c(C)cc4c3F)ncnc2cc1OCCCN1CCCC1 [cediranib] + CCCCCCCCCCCC1=C(O)C(=O)C=C(O)C1=O [Embelin] (first compound 2 µM, partner dose 6 µM)",88.5,95.5,104,105
"NC(=O)c1ccc(N(C(N)=O)c2c(F)cccc2F)nc1-c1ccc(F)cc1F + O=C(O)C(=O)Nc1sc2c(c1C(=O)O)CCNC2 [TCS401] (first compound 2 µM, partner dose 8.33333 µM)",80.8,101,91.2,148
"CC(C)(C)c1cnc(CSc2cnc(NC(=O)C3CCNCC3)s2)o1 + CC(C)CCN1c2nc(Nc3cc(F)c(O)c(F)c3)ncc2N(C)C(=O)C1C [BID1870] (first compound 0.05 µM, partner dose 1 µM)",70.7,45.2,72.8,79.9
